From the supplement of paper PMC4604168 (melanoma cell lines)
Some of the results follow. Most values come without repeats; read them as rough.

test system: A101D; experiment: cell count relative to DMSO control; melanoma cells; higher = more viable cells; settings: library dose: standard library concentration; 72 h
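Further: cells treated in 1,536-well plates, then fixed and DAPI-stained, with nuclei counted from automated high-throughput microscope images.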

Structure (SMILES)	cell count
CS(=O)(=O)c1ccc(C(=O)Nc2ccc(Cl)c(-c3ccccn3)c2)c(Cl)c1 [vismodegib] + CNC(=O)c1cc(Oc2ccc(NC(=O)Nc3ccc(Cl)c(C(F)(F)F)c3)cc2)ccn1 [sorafenib] (first compound 5 µM, partner dose 2 µM)	102%
C=C(c1ccc(C(=O)O)cc1)c1cc2c(cc1C)C(C)(C)CCC2(C)C [Bexarotene] + Clc1ccc(Nc2nnc(Cc3ccncc3)c3ccccc23)cc1 [vatalanib] (first compound 10 µM, partner dose 10 µM)	75.8%
CN(c1ncccc1CNc1nc(Nc2ccc3c(c2)CC(=O)N3)ncc1C(F)(F)F)S(C)(=O)=O + CO[C@H]1C[C@@H]2CC[C@@H](C)[C@@](O)(O2)C(=O)C(=O)N2CCCC[C@H]2C(=O)O[C@H]([C@H](C)C[C@@H]2CC[C@@H](OCCO)[C@H](OC)C2)CC(=O)[C@H](C)/C=C(\C)[C@@H](O)[C@@H](OC)C(=O)[C@H](C)C[C@H](C)/C=C/C=C/C=C/1C [everolimus] (first compound 0.4 µM, partner dose 0.1 µM)	92.6%
NC1(c2ccc(-c3nc4ccn5c(=O)[nH]nc5c4cc3-c3ccccc3)cc2)CCC1 + Cc1cc(N2CCOCC2)cc2[nH]c(-c3c(NC[C@@H](O)c4cccc(Cl)c4)cc[nH]c3=O)nc12 [BMS536924] (first compound 2 µM, partner dose 1 µM)	58.2%
NC1(c2ccc(-c3nc4ccn5c(=O)[nH]nc5c4cc3-c3ccccc3)cc2)CCC1 + NCC(=O)Nc1ccc(-n2nc(C(F)(F)F)cc2-c2ccc3c(ccc4ccccc43)c2)cc1 [OSU03012] (first compound 2 µM, partner dose 5 µM)	50.8%
CCCS(=O)(=O)Nc1ccc(F)c(C(=O)c2c[nH]c3ncc(Cl)cc23)c1F + Nc1ncn([C@H]2C[C@H](O)[C@@H](CO)O2)c(=O)n1 [decitabine] (first compound 0.4 µM, partner dose 0.5 µM)	73.5%
C=C(c1ccc(C(=O)O)cc1)c1cc2c(cc1C)C(C)(C)CCC2(C)C [Bexarotene] + Nc1cccc2c1CN(C1CCC(=O)NC1=O)C2=O [lenalidomide] (first compound 10 µM, partner dose 5 µM)	80.7%
C=C(c1ccc(C(=O)O)cc1)c1cc2c(cc1C)C(C)(C)CCC2(C)C [Bexarotene] + NC(=O)Nc1cc(-c2cccc(F)c2)sc1C(=O)N[C@H]1CCCNC1 [AZD7762] (first compound 10 µM, partner dose 0.1 µM)	62.6%
CCCS(=O)(=O)Nc1ccc(F)c(C(=O)c2c[nH]c3ncc(Cl)cc23)c1F + O=C(CCCCCCC(=O)Nc1ccccc1)NO [vorinostat] (first compound 0.4 µM, partner dose 0.4 µM)	81.2%
CN(c1ncccc1CNc1nc(Nc2ccc3c(c2)CC(=O)N3)ncc1C(F)(F)F)S(C)(=O)=O + CCCS(=O)(=O)Nc1ccc(F)c(C(=O)c2c[nH]c3ncc(Cl)cc23)c1F [PLX4720] (first compound 0.4 µM, partner dose 0.4 µM)	72%
NC1(c2ccc(-c3nc4ccn5c(=O)[nH]nc5c4cc3-c3ccccc3)cc2)CCC1 + COc1ccc(Cl)c(Nc2nc3ccccc3nc2NS(=O)(=O)c2cccc(NC(=O)C(C)(C)N)c2)c1 [XL147] (first compound 2 µM, partner dose 4 µM)	73.6%
CS(=O)(=O)c1ccc(C(=O)Nc2ccc(Cl)c(-c3ccccn3)c2)c(Cl)c1 [vismodegib] + C=CCn1c(=O)c2cnc(Nc3ccc(N4CCN(C)CC4)cc3)nc2n1-c1cccc(C(C)(C)O)n1 [MK1775] (first compound 5 µM, partner dose 0.1 µM)	65.8%
CS(=O)(=O)c1ccc(C(=O)Nc2ccc(Cl)c(-c3ccccn3)c2)c(Cl)c1 [vismodegib] + COc1ccc(Cl)c(Nc2nc3ccccc3nc2NS(=O)(=O)c2cccc(NC(=O)C(C)(C)N)c2)c1 [XL147] (first compound 5 µM, partner dose 4 µM)	93.4%
NC1(c2ccc(-c3nc4ccn5c(=O)[nH]nc5c4cc3-c3ccccc3)cc2)CCC1 + COc1cc(Nc2ncc(F)c(Nc3ccc4c(n3)NC(=O)C(C)(C)O4)n2)cc(OC)c1OC [Tamatinib] (first compound 2 µM, partner dose 2 µM)	36.9%
C=C(c1ccc(C(=O)O)cc1)c1cc2c(cc1C)C(C)(C)CCC2(C)C [Bexarotene] + NCC(=O)Nc1ccc(-n2nc(C(F)(F)F)cc2-c2ccc3c(ccc4ccccc43)c2)cc1 [OSU03012] (first compound 10 µM, partner dose 5 µM)	15.8%
CS(=O)(=O)c1ccc(C(=O)Nc2ccc(Cl)c(-c3ccccn3)c2)c(Cl)c1 [vismodegib] + O=C(O)c1ccc(-c2c[nH]c3ncc(-c4ccccc4)cc23)cc1C1CCCC1 [GSK650394] (first compound 5 µM, partner dose 0.8 µM)	110%

Structure (SMILES)	cell count
NC1(c2ccc(-c3nc4ccn5c(=O)[nH]nc5c4cc3-c3ccccc3)cc2)CCC1 + CO[C@@H]1[C@H](N(C)C(=O)c2ccccc2)C[C@H]2O[C@]1(C)n1c3ccccc3c3c4c(c5c6ccccc6n2c5c31)C(=O)NC4 [Midostaurin] (first compound 2 µM, partner dose 0.4 µM)	65.6%
CN(c1ncccc1CNc1nc(Nc2ccc3c(c2)CC(=O)N3)ncc1C(F)(F)F)S(C)(=O)=O + Nc1ncn([C@H]2C[C@H](O)[C@@H](CO)O2)c(=O)n1 [decitabine] (first compound 0.4 µM, partner dose 0.5 µM)	102%
CN(c1ncccc1CNc1nc(Nc2ccc3c(c2)CC(=O)N3)ncc1C(F)(F)F)S(C)(=O)=O + Cn1c(Nc2ccc(C(F)(F)F)cc2)nc2cc(Oc3ccnc(-c4ncc(C(F)(F)F)[nH]4)c3)ccc21 [CHIR265] (first compound 0.4 µM, partner dose 0.4 µM)	54.7%
NC1(c2ccc(-c3nc4ccn5c(=O)[nH]nc5c4cc3-c3ccccc3)cc2)CCC1 + O=C(Nc1cccc(Cl)c1)Nc1ncc(CCNc2ncnc3ccsc23)s1 [SNS314] (first compound 2 µM, partner dose 0.004 µM)	70.5%
CCCS(=O)(=O)Nc1ccc(F)c(C(=O)c2c[nH]c3ncc(Cl)cc23)c1F + Clc1ccc(Nc2nnc(Cc3ccncc3)c3ccccc23)cc1 [vatalanib] (first compound 0.4 µM, partner dose 10 µM)	65.5%
NC1(c2ccc(-c3nc4ccn5c(=O)[nH]nc5c4cc3-c3ccccc3)cc2)CCC1 + C[C@@H](Oc1cc(-c2cnn(C3CCNCC3)c2)cnc1N)c1c(Cl)ccc(F)c1Cl [Crizotinib] (first compound 2 µM, partner dose 1 µM)	74.1%
CN(c1ncccc1CNc1nc(Nc2ccc3c(c2)CC(=O)N3)ncc1C(F)(F)F)S(C)(=O)=O + Cn1nnc2c(C(N)=O)ncn2c1=O [temozolomide] (first compound 0.4 µM, partner dose 10 µM)	73.8%
NC1(c2ccc(-c3nc4ccn5c(=O)[nH]nc5c4cc3-c3ccccc3)cc2)CCC1 + Cn1c(=O)n(-c2ccc(C(C)(C)C#N)cc2)c2c3cc(-c4cnc5ccccc5c4)ccc3ncc21 [NVP-BEZ235] (first compound 2 µM, partner dose 0.02 µM)	47.4%
C=C(c1ccc(C(=O)O)cc1)c1cc2c(cc1C)C(C)(C)CCC2(C)C [Bexarotene] + C#Cc1cccc(Nc2ncnc3cc(OCCOC)c(OCCOC)cc23)c1 [erlotinib] (first compound 10 µM, partner dose 4 µM)	88.4%
CCCS(=O)(=O)Nc1ccc(F)c(C(=O)c2c[nH]c3ncc(Cl)cc23)c1F + CC1(C)NC(=O)N(c2ccc([N+](=O)[O-])c(C(F)(F)F)c2)C1=O [nilutamide] (first compound 0.4 µM, partner dose 5 µM)	66.9%
NC1(c2ccc(-c3nc4ccn5c(=O)[nH]nc5c4cc3-c3ccccc3)cc2)CCC1 + C#Cc1cccc(Nc2ncnc3cc(OCCOC)c(OCCOC)cc23)c1 [erlotinib] (first compound 2 µM, partner dose 4 µM)	60.6%
CCCS(=O)(=O)Nc1ccc(F)c(C(=O)c2c[nH]c3ncc(Cl)cc23)c1F + OCCn1cc(-c2cnc3nnn(Cc4ccc5ncccc5c4)c3n2)cn1 [PF04217903] (first compound 0.4 µM, partner dose 5 µM)	70%
CS(=O)(=O)c1ccc(C(=O)Nc2ccc(Cl)c(-c3ccccn3)c2)c(Cl)c1 [vismodegib] + Nc1nc(F)nc2c1ncn2[C@@H]1O[C@H](CO)[C@@H](O)[C@@H]1O [fludarabine] (first compound 5 µM, partner dose 1 µM)	107%
NC1(c2ccc(-c3nc4ccn5c(=O)[nH]nc5c4cc3-c3ccccc3)cc2)CCC1 + C[C@]1(c2nc3c(C(N)=O)cccc3[nH]2)CCCN1 [Veliparib] (first compound 2 µM, partner dose 7 µM)	78.9%
CS(=O)(=O)c1ccc(C(=O)Nc2ccc(Cl)c(-c3ccccn3)c2)c(Cl)c1 [vismodegib] + C#Cc1cccc(Nc2ncnc3cc(OCCOC)c(OCCOC)cc23)c1 [erlotinib] (first compound 5 µM, partner dose 4 µM)	62.4%
